# Laboratory results from PubChem BioAssay AID894 (National Center for Advancing Translational Sciences (NCATS), 2007).
# Hit rate of the full screen: of about 150,000 compounds, about 6,500 (4.3%) were called active. This list was built around the results that the source calls inconclusive (neither active nor inactive); the mix of calls is not that of the screen. Calls follow the shape of the dose curve; as a rule, active = well fitted inhibition curve with a large enough effect (not every such curve was filed as active); inconclusive = small, poorly fitted or top-dose-only effect, or another doubt; inactive = no such curve, though single readings can be large or run the other way. No potency is given beside an inconclusive call; the fits are too rough.
# Molecular target: 15-hydroxyprostaglandin dehydrogenase [NAD(+)] (Homo sapiens) (UniProt P15428)
# Test: qHTS Assay for Inhibitors of HPGD (15-Hydroxyprostaglandin Dehydrogenase)
# Settings: purified HPGD, NADH fluorescence kinetic, PGE2 substrate; activity change, negative = inhibition: stronger effect = lower value
# How it was run: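 20 nM HPGD preincubated 15 min at room temperature with compound in 50 mM Tris-HCl pH 8, 0.01% Tween 20. Started with 1 mM NAD+ and 30 uM prostaglandin E2; NADH fluorescence (360/450 nm) read 5 times over 30-s intervals, last minus first.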
# % is scaled to controls: 0 for no effect and ±100 for the full control effect; potency is read from the fitted curve at half-maximal effect; tags tell the direction and shape of the fitted curve.
# UniProt P15428, sequence (P15428 whole entry, looked up): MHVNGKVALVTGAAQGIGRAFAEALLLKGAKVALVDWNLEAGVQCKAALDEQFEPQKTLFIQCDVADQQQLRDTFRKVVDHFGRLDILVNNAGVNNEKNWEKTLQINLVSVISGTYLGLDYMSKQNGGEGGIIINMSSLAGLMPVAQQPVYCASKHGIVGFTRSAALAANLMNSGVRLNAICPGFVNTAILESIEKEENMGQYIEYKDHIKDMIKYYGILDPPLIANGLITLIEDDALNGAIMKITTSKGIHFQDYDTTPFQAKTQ
Structure (SMILES),Potency,"activity change, negative = inhibition"
O=C(c1ccco1)N1CCN(c2ncnc3c2[nH]c2ccc(Br)cc23)CC1,"inconclusive [inhibitor, partial curve]",
O=S(=O)(c1ccc(N2CCC(c3ccc(Cl)cc3)=N2)cc1)N(CCO)CCO,"inconclusive [inhibitor, partial curve]",
CCn1c(=O)c2cc(C(=O)N3CCOCC3)sc2c2ccccc21,"inconclusive [inhibitor, partial curve]",
CC(=O)c1c(C)[nH]c(C(=O)Nc2nc(-c3ccc(-c4ccccc4)cc3)cs2)c1C,"inconclusive [inhibitor, partial curve]",
COc1ccc(OCC(=O)Nc2ccccc2OC(F)F)cc1,"inconclusive [inhibitor, partial curve]",
COc1cccc(C=Nc2ccccc2C(=O)Nc2ccccc2)c1O,"inconclusive [inhibitor, partial curve]",
CN1CC(c2ccccc2Cl)C2(COc3ccccc3C2=O)C12C(=O)Nc1ccccc12 (centres undefined),"inconclusive [inhibitor, partial curve, poor fit]",
COC(=O)CSCC(=O)Nc1cc2c(cc1C(C)=O)OCO2,"inconclusive [inhibitor, partial curve]",
CCOC(=O)C1CCN(C(=O)CCCOc2ccccc2)CC1,,inactive: -15.4%
CC1Nc2nc(N(C)C)[nH]c(=O)c2NC1C (centres undefined),"inconclusive [inhibitor, partial curve]",
O=C(CN1CC(c2ccccc2)CC1=O)N/N=C/c1cc(Br)ccc1O (centres undefined),"inconclusive [inhibitor, partial curve]",
Cc1c(Oc2ccc(C(F)(F)F)cc2[N+](=O)[O-])ccc2c3c(c(=O)oc12)CCC3,"inconclusive [inhibitor, single point]",
O=[N+]([O-])c1ccccc1-c1cc(-c2cc(Cl)ccc2O)n[nH]1,active: 11.2 µM,
CCC(C)NC(=O)CNC(=O)Cn1c(C)cc2ccccc2c1=O (centres undefined),"inconclusive [inhibitor, single point]",
CC(=O)c1ccc(-c2c(C)cc3oc(=O)cc(-c4ccccc4)c3c2C)cc1,"inconclusive [inhibitor, partial curve]",
COc1ccccc1C1Nc2cccc3cccc(c23)N1,"inconclusive [inhibitor, single point]",
COC(=O)c1c(NC(=O)c2c(-c3ccccc3Cl)noc2C)sc2c1CCC2,"inconclusive [inhibitor, partial curve]",
Cc1ccc2cc3cc(C(=O)NCCCN4CCCCCC4)oc3nc2c1,"inconclusive [inhibitor, partial curve]",
CC(C)N1C(=O)S/C(=C/c2ccc3c(c2)n(C)c(=O)n3C)C1=O,"inconclusive [inhibitor, single point]",
CCOC(=O)CSc1nc(-c2ccncc2)ccc1C#N,"inconclusive [inhibitor, partial curve]",
OCCN1CCN(C(=S)c2ccc(Cl)c(Cl)c2)CC1,active: 14.1 µM,
CCOc1ccc(NC2c3ccccc3C(=O)N2Cc2ccco2)cc1 (centres undefined),,inactive: -21.2%
C=C1C(N)CC2CC1C2(C)C (centres undefined),,inactive: -4.97%
CCN(CC)c1ccc(/C=N/Nc2nc(C)cc(C)n2)c(O)c1,active: 20 µM,
CCCn1c(-c2ccc(F)cc2)n[nH]c1=S,"inconclusive [inhibitor, partial curve]",

Structure (SMILES),Potency,"activity change, negative = inhibition"
CNC(=O)Nc1ccc2snnc2c1,"inconclusive [inhibitor, partial curve]",
COc1ccc(-n2[nH]c(C)cc2=O)cc1,,inactive: -0.721%
CCOC(=O)C1CCN(Cc2cnc(Oc3ccc(C(C)(C)C)cc3)s2)CC1,"inconclusive [inhibitor, partial curve]",
CC(C)=CCc1c(O)cc2oc(C)cc(=O)c2c1O,active: 4.47 µM,
Cc1c(-c2ccc(Cl)cc2)oc(=O)c2c(N)n(-c3ccccc3)nc12,"inconclusive [inhibitor, single point]",
O=C(O)c1ccc(CSc2nnc(COc3ccc(Cl)cc3Cl)o2)cc1,active: 5.01 µM,
O=C(CCn1nnc2ccccc21)Nc1nnc(COc2ccccc2F)s1,,inactive: -18.1%
CNc1nc(N)c([N+](=O)[O-])c(NCc2ccccc2)n1,"inconclusive [inhibitor, single point]",
Cc1ccc(N(C(=O)C2CCCC2)C2C=CS(=O)(=O)C2)cc1 (centres undefined),,inactive: -8.9%
CCC(C)NC(=O)C1CCC(=O)N(c2ccc3c(c2)OCO3)C1c1ccc(OC)cc1 (centres undefined),,inactive: -1.11%
N#Cc1c(NCc2ccccc2)ccnc1NCc1cccnc1,active: 12.6 µM,
O=S(=O)(O)c1cc(N=[N+]([O-])c2cc(S(=O)(=O)O)c3ccccc3c2)cc2ccccc12,,inactive: -18.9%
O=C(NCCc1ccccc1)c1cccs1,,inactive: -13.4%
CCCn1nc(C(=O)NC2CCCc3ccccc32)c2ccccc2c1=O (centres undefined),,inactive: -4.93%
O=c1c2c(-c3ccco3)csc2nc(SCc2cn3cccnc3n2)n1-c1ccccc1,,inactive: -18.4%
CCOc1ccc(N=Nc2c(=O)[nH]n3c(=O)c4c([nH]c23)CCCC4)cc1,"inconclusive [inhibitor, partial curve, poor fit]",
Cc1sc2nc3n(c(=O)c2c1C)Cc1ccccc1-3,"inconclusive [inhibitor, partial curve]",
O=C(CSc1nc2c(c(=O)[nH]1)CCC2)Nc1cccc(Cl)c1,active: 14.1 µM,
Cc1cccc(N2C(=O)CN(Cc3sccc3C)C2=S)c1,active: 14.1 µM,
Cc1c(Cc2ccccc2)sc(/N=C/c2c(O)ccc3ccccc23)c1C(N)=O,"inconclusive [inhibitor, single point]",
COc1cccc(-n2nnc3c(=O)n(C/C=C/c4ccccc4)cnc32)c1,active: 10 µM,
Cn1c(=O)c2c(nc(-n3ccnc3)n2C)n(C)c1=O,,inactive: -2.65%
CCOC(=O)CCC(NC(=O)c1cncc(O)c1)C(=O)OCC (centres undefined),"inconclusive [inhibitor, partial curve]",
COc1cc(NS(=O)(=O)c2ccc(N/C=C(\C#N)c3nc4cc(Cl)ccc4o3)cc2)nc(OC)n1,active: 28.2 µM,
CCn1cc(C(=O)NCc2ccc3c(c2)OCO3)c(=O)c2cc(S(=O)(=O)N(C)C)ccc21,"inconclusive [inhibitor, partial curve]",

Structure (SMILES),Potency,"activity change, negative = inhibition"
O=C(Nc1ccccc1)c1ccc(CSc2ccccn2)cc1,"inconclusive [inhibitor, partial curve]",
Cn1c(SCC(=O)NC2CCCCC2)nnc1-c1cc2cc(Cl)ccc2o1,"inconclusive [inhibitor, partial curve]",
O=C(CCCSc1nc2ccccc2s1)Nc1nccs1,active: 25.1 µM,
COc1ccc(-n2c(C)cc(/C=C(\C#N)C(=O)NCc3ccco3)c2C)cc1,"inconclusive [inhibitor, partial curve]",
Cc1ccccc1-c1ccc(Nc2ccc(C(=O)N3CCOCC3)cc2)nn1,active: 22.4 µM,
Cc1nc2c(C(=O)N3CCOCC3)cnn2c(C)c1Cc1ccc(Cl)cc1,"inconclusive [inhibitor, partial curve]",
CCOC(=O)C1CCN(C(=O)CSc2n[nH]c(=O)[nH]c2=O)CC1,,inactive: -13.4%
CC(C)C(=O)Nc1cccc(-c2cn3ccccc3n2)c1,"inconclusive [inhibitor, partial curve]",
COC(=O)c1c(-c2cccc3ccccc23)csc1NC(=O)Cc1ccc(OC)c(OC)c1,,inactive: -13.4%
O=C(CSc1nnc(-c2ccco2)n1Cc1ccccc1)c1ccccc1,active: 28.2 µM,
O=C(/C=C/c1ccccc1Cl)Nc1ccc(-c2nnc3n2CCCCC3)cc1,active: 3.98 µM,
CNC(=S)NNC(=O)c1ccccc1Br,,inactive: -14.3%
COC(=O)C1(Cc2ccccc2)NC(c2ccc(F)cc2)C2C(=O)N(C)C(=O)C21 (centres undefined),,inactive: 2.91%
Clc1ccccc1-c1nnc2sc(-c3cccs3)nn12,active: 28.2 µM,
O=C(CNC1CCCCC1)N1CCc2ccccc2C1,,inactive: -11.2%
COc1ccc(-c2c[n+]3c4n2CCCCC4=C(c2ccc(Br)cc2)C3)cc1,"inconclusive [inhibitor, partial curve]",
COc1ccc(C(=O)N(CCCO)Cc2cc3c(C)ccc(C)c3[nH]c2=O)cc1OC,"inconclusive [inhibitor, partial curve]",
CCCSc1nc(-n2ncc(C#N)c2N)c2c3c(sc2n1)CCC(C)C3 (centres undefined),"inconclusive [inhibitor, single point]",
O=C(Cc1ccccc1)NCCSCc1ccc(Cl)cc1,active: 31.6 µM,
Cc1ccccc1NS(=O)(=O)c1ccc(OCC(=O)NCc2cccnc2)cc1,,inactive: 3.07%
Cc1ccc(S(=O)(=O)N2CCCC2c2nc3ccccc3s2)cc1 (centres undefined),,inactive: -0.105%
CC(C)c1ccc2c(c1)[C@H]1OCC[C@H]1[C@@H](c1cccs1)N2,active: 7.94 µM,
CCOC(=O)c1cc(-c2ccccc2)n(CC(=O)O)c1C,active: 25.1 µM,
COc1cccc(-c2nn(C)c3sc(C(=O)NCc4ccc(C)o4)cc23)c1,"inconclusive [inhibitor, partial curve]",
